In all, about 1,100 compounds went through this assay and about 70 (6%) were called active. Roughly 22% stayed inconclusive and do not appear here. Calls follow the shape of the dose curve; as a rule, active = well fitted curve in the direction sought with a large enough effect; inconclusive = small, poorly fitted or top-dose-only effect, or another doubt; inactive = no such curve, though single readings can be large or run the other way. Some of the results follow.
The molecules below were run against Polyunsaturated fatty acid lipoxygenase ALOX12 (Homo sapiens) (UniProt P18054) (assay: Confirmatory qHTS assay for inhibitors of human arachidonate 12S-lipoxygenase (ALOX12): Round 2). Settings: purified human 12-LOX, xylenol orange absorbance; series mostly up to 125 µM; activity change, negative = inhibition: at the top concentration.
UniProt P18054, sequence (P18054 whole entry, looked up): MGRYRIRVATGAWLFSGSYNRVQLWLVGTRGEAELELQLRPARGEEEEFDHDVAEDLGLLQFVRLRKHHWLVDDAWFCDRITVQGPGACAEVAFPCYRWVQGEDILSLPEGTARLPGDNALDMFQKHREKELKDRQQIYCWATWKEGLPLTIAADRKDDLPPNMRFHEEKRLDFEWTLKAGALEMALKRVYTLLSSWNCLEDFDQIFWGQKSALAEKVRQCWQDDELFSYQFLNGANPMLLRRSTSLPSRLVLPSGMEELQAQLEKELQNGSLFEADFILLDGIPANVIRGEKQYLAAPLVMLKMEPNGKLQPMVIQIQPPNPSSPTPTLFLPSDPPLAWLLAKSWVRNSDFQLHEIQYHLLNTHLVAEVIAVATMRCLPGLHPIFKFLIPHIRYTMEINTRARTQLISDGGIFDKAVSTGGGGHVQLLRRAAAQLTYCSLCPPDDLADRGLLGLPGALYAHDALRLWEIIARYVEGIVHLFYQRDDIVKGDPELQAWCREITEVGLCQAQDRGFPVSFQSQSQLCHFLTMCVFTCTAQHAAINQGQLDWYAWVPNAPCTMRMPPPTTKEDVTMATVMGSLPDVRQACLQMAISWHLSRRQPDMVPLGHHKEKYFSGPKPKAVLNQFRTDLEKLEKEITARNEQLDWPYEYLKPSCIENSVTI
Method in brief: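 Activity was measured as hydroperoxide formation via ferrous/xylenol orange, taking the 573 nm to 405 nm absorbance ratio. Reaction: 40 uM arachidonic acid, 30 min at room temperature, after 15 min compound preincubation with 150 nM enzyme, pH 7.0 Hepes buffer.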
% is scaled to controls: 0 for no effect and ±100 for the full control effect; potency is read from the fitted curve at half-maximal effect.

Activity change, negative = inhibition, inactive:
CN1CC(=O)N(C2CCCNCC2)Cc2c(NCc3ccc4c(c3)OCO4)ncnc21 (stereo not given) -21.5%
O=Cc1ccc(-c2cncc(C(=O)O)c2)cc1 -13.9% [at 233 µM]
c1ccc(C2(c3ccccc3)CCCN(Cc3cscn3)C2)cc1 -5.78% [at 64.5 µM]
CC(=O)NCCC(=O)N1Cc2ccccc2CC2(CCCN(CC3CCNC3)C2)C1 (stereo not given) -2.11%
O=C(c1ccccc1F)N1CCC2(C1)C(=O)N(c1ccccc1)c1ccccc12 (stereo not given) -12.9%
CNc1oc(-c2cccc(Cl)c2)nc1C#N -2.27% [at 64.5 µM]
OCC1CN(Cc2ccc(Cl)cc2)CC12CCNCC2 (stereo not given) -4.83% [at 64.5 µM]
O=C(OCC#CCSc1nnc(-c2cccc3ccccc23)o1)c1ccccc1F -14.4% [at 64.5 µM]
Cc1cccc(CN2CCCC23Cc2ccccc2CNC3=O)c1 (stereo not given) -20.7%
Cc1ccc(C(=O)N2CCC3(CC(C(C)C)=NO3)C2)cc1 (stereo not given) -5%
CCCNC(=O)N1CC[C@@H]2[C@H]1C(=O)N(c1cccc(F)c1)C(=O)N2Cc1cccs1 17.7% [at 64.5 µM]
COc1ccc(CN2C[C@H](O)C[C@H]2c2nc(-c3ccc(OC)cc3)no2)cc1 -19.6% [at 64.5 µM]
CC(C)NC(=O)NC1CC2(CCN(C(=O)Cc3ccc(O)cc3)CC2)c2ccccc21 (stereo not given) -17.5%
Cc1cccn2c(CNC3CCC4(CCNCC4)CC3)cnc12 0.399% [at 64.5 µM]
Cc1cc(C(=O)NCc2ccc(F)cc2)c2c(C3CCCNC3)noc2n1 (stereo not given) -10%
CC(C)Nc1ncnc2c1CN(C1CCCNC1)C(=O)CN2C (stereo not given) -17.1%
CC(C)c1nc2c(c(-c3ccc(Cl)cc3)n1)CCN(Cc1cccc3ccccc13)CC2 -18.3%
O=C1NCCCCCCN[C@H]2C[C@H](c3nc(-c4cccnc4)no3)C[C@@H]12 -9.6% [at 64.5 µM]
O=C(OCC#CCSc1nnc(-c2cccc3ccccc23)o1)c1ccsc1 -10.6% [at 64.5 µM]
Cc1noc(C)c1-c1cc2cc(C(C)C)oc2c(-c2cccc(CO)c2)n1 -6.07% [at 64.5 µM]
COCCNc1ncnc2c1CN(C1CCCNCC1)C(=O)CN2C (stereo not given) -5.38%
CCc1nc2c(c(-c3ccc(OC)cc3)n1)CCN(Cc1cccc3ccccc13)CC2 -29.4%
Cn1ccnc1CNc1nccc(-c2cnn(-c3ccccc3F)c2)n1 12.3% [at 64.5 µM]
CCC(=O)N1Cc2ccccc2CC2(CCN(CC3CCNC3)C2)C1 (stereo not given) -20.6%
Cc1ccc(-c2ccccc2CN)cc1Cl -19.5%
CC1=C[C@@H](CNCc2ccncc2)[C@H](C(C)C)C[C@H]1Cc1nnc(-c2ccc([N+](=O)[O-])cc2)o1 32.6% [at 64.5 µM]
O=C(NCc1ccc(-c2cnc3c(Oc4ccccc4)nccn23)cc1)c1ccn[nH]1 -6.61% [at 64.5 µM]
CCNc1ncnc2c1CN(C1CCCNC1)C(=O)CN2C (stereo not given) -11.7%
C[C@@H](CC(=O)O)[C@@H](N)C(=O)O -1.01%
CC1CCCN(c2ncnc3c2CN(C2CCNCC2)C(=O)CN3C)C1 (stereo not given) -21%
O=C(c1ccccc1)N1Cc2ccccc2CC2(CCCCN2CC2CCNC2)C1 (stereo not given) -25.9%
CCN1CCCC12Cc1ccccc1CN([S+](C)(=O)[O-])C2 (stereo not given) -17.1%
CCn1cc(-c2ccc(C)cc2)cc1C(=O)N1CCN(c2ccccn2)CC1 -19.2% [at 64.5 µM]
COc1ccc(CC(=O)N2Cc3ccccc3CC23CCCN([S+](C)(=O)[O-])C3)cc1 (stereo not given) -10.5%
N#Cc1ccc(CN2CCn3c(nn(-c4cccc(Cl)c4)c3=O)C2)cc1 -26.4%
COC(=O)[C@@H]1Cc2ncn(Cc3ccc(OC)cc3)c2CN1Cc1ccc(OC)cc1 -11.9%
COc1ccccc1N1C(=O)C=C(Sc2nc(C)cc(C)n2)C1=O -21.2%
COc1cccc(-c2ccc(CN)cc2)c1 -0.015%
Fc1ccc(OC2CN(CC3CC3)C2)cc1F -22.7% [at 233 µM]
Fc1ccc(-c2ccc3ncc(Nc4ncccn4)n3n2)cc1 15.6% [at 64.5 µM]
COc1ccc(CNc2ncnc3c2CN(C2CCNC2)C(=O)CN3C)cc1OC (stereo not given) -15.6%
CN1CC(=O)N(C2CCNC2)Cc2c(NCC3(O)CCCCC3)ncnc21 (stereo not given) -19.9%
CC(=O)Nc1ccc(CN2CCCC23Cc2ccccc2CN(C(=O)CCC(=O)O)C3)cc1 (stereo not given) -14%
CCN(c1ccc2c(c1)OCO2)C1CN(C(=O)OC(C)(C)C)C1 -29.3%
CN1CC(=O)N(C2CCNC2)Cc2c(NCCc3cccc(F)c3)ncnc21 (stereo not given) -17.9%
COCc1nc(C2CC(N)C2)cc(N2CCC(NS(C)(=O)=O)CC2)n1 (stereo not given) -26.2% [at 64.5 µM]
CC(C)OCCCNc1ncnc2c1CN(C1CCCNCC1)C(=O)CN2C (stereo not given) -7.35%
Cc1cncnc1C1CCN(c2cc(C3CC(N)C3)ncn2)CC1 (stereo not given) -9.06% [at 64.5 µM]
COCCn1cc2c3c(cccc31)CN(C(=O)c1cccc(Cl)c1)CC2 37.4% [at 64.5 µM]
CCCC(=O)N1Cc2ccccc2CC2(CCN(Cc3ccccc3)CC2)C1 -3.28%
COc1ccccc1CNc1ncnc2c1CN(C1CCCNCC1)C(=O)CN2C (stereo not given) -16%
O=C(NCC(F)(F)F)c1cc(C2CC2)nc2c1c(C1CCCN1)nn2-c1ccccc1 (stereo not given) -27.3%
CC(C)c1nc2c(c(-c3ccc(Cl)cc3)n1)CCN(C(=O)c1ccc3c(c1)OCO3)CC2 -23.4%
COc1ccc(-c2cc(C(=O)NCC(C)C)c3c(C4CCCN4)noc3n2)cc1 (stereo not given) -9.44%
COC(=O)[C@@H]1Cc2nc[nH]c2CN1Cc1ccc(C(=O)O)cc1 18.8%
CCOCCCNc1ncnc2c1CN(C1CCNCC1)C(=O)CN2C -15.7%
O=C(NCC1(O)CCCNCC1)c1ccc(-n2cnnc2)cc1 (stereo not given) -17.1% [at 64.5 µM]
CN1CC(=O)N(C2CCNCC2)Cc2c1ncnc2N1CCCC1CO (stereo not given) -22.3%
CCCCCNc1ncnc2c1CN(C1CCCNCC1)C(=O)CN2C (stereo not given) -14.4%
CC(C)CNC(=O)c1cc(C2CC2)nc2onc(C3CCNCC3)c12 -20.9%
Cc1ccc(NC(=O)N2Cc3[nH]cnc3C[C@H]2c2nc(-c3ccc4ccccc4c3)no2)cc1 3.35% [at 64.5 µM]
Clc1ccc(-c2nnc(C3CCCCC3)o2)cc1 10.2% [at 64.5 µM]
O=C(c1ccncc1)N1CCC(c2nnc3n2CCNC3)CC1 -10.2%
CN1CC(=O)N(C2CCNCC2)Cc2c(NCCN3CCOCC3)ncnc21 11.4%
CNCc1ccccc1-c1ccccc1 -15% [at 233 µM]
Cc1cc(C(=O)NC2CC2)c2c(C3CCNCC3)noc2n1 -1.86%
COc1ccc(N2CC3CCC(C2)N3CC(C)C)cc1 -1.91%
Nc1ncn([C@H]2C[C@H](O)[C@@H](CO)O2)c(=O)n1 8.57%
COc1ccc(-c2nc(C3CC3)nc3c2CCN(Cc2ccc(F)cc2)CC3)cc1 -30.4%
Cc1cc(C(=O)NC2CCCC2)c2c(C3CCNCC3)noc2n1 -16.9%
Cn1nc(C2CCCNC2)c2c(C(=O)NC3CC3)cc(C3CC3)nc21 (stereo not given) -12.1%
Cc1nn2c(c1-c1cccnc1N1CCOCC1)N(Cc1ccccc1F)CCC2 -1.37% [at 64.5 µM]
COc1ccc(C(=O)N2CCOC3(CCN(C(=O)CN)CC3)C2)cc1 -13.5%
CC(C)C(=O)N1Cc2ccccc2CC2(CCCCN2CC2CCNC2)C1 (stereo not given) -15.4%
CN(C)CCC(=O)N1Cc2ccccc2CC2(CCCCN2CC2CCOCC2)C1 (stereo not given) -26.8%
Cc1nc(N2CCC(C(=O)NCc3ccc4c(c3)OCO4)CC2)cc(C(F)(F)F)n1 -10.7% [at 64.5 µM]
Fc1ccc(CN2CCn3c(nnc3C3CCCNC3)C2)cc1 (stereo not given) -24.7%
Cn1nc(C2CCCN2)c2c(C(=O)NCc3ccncc3)cc(C3CC3)nc21 (stereo not given) -4.98%
COCCNc1nc2c([S+](=O)([O-])c3cc(OC)ccc3OC)nnn2c2ccccc12 -8.46%
O=C(c1ccccn1)N1CCc2nc(C3CC3)nc(-c3ccc(Cl)cc3)c2C1 -8.99%
CC(CO)Nc1ncnc2c1CN(C1CCCNC1)C(=O)CN2C (stereo not given) -11.5%
C[S+](=O)([O-])N1Cc2ccccc2CC2(CCCCN2CC2CCNCC2)C1 (stereo not given) -4.25%
O=Cc1ccc(-c2ccc(O)cc2)cc1 -27.2% [at 233 µM]
CCc1ccc(S(=O)(=O)c2nnn3c2nc(NCc2ccc(F)cc2)c2ccccc23)cc1 -1.49%
CN1CC(=O)N(C2CCNCC2)Cc2c(NC3CCCCCC3)ncnc21 -12.8%
CNc1oc(-c2ccc(-c3ccccc3)cc2)nc1C#N -4.38% [at 64.5 µM]
C[S+](=O)([O-])N1CCCC(c2nnc3n2CCNC3)C1 (stereo not given) -12.1%
CN1CC(=O)N(c2cccc(F)c2)Cc2c(NC3CCNCC3)ncnc21 -12%
CN(C)C(=O)N1Cc2ccccc2OC2(CCN(C(=O)Cc3cnc[nH]3)CC2)C1 11.9%
COc1ccc(CN2CCCC23Cc2ccccc2CNC3=O)cc1 (stereo not given) -13.4%
Cc1cc(Cn2cnc3c2C[C@@H](C(=O)O)N(C(=O)C(c2ccccc2)c2ccccc2)C3)ccc1N(C)C -1.49%
O=c1[nH]c(C2CCCN(Cc3ccc(-c4ccsc4)cc3)C2)nc2ccc(F)cc12 (stereo not given) -30.3%
CN1CC(=O)N(C2CCNCC2)Cc2c1ncnc2N1CCC(O)CC1 -10.4%
O=C(O)c1cccc(-c2ccc(OC(F)(F)F)cc2)c1 -11.7%
COc1ccc(-n2nc3n(c2=O)CCN(C(=O)c2ccccn2)C3)cc1 -5.28%
FC(F)(F)c1cccc(C2=NOC3(CCN(Cc4ccccc4)C3)C2)c1 (stereo not given) -27%
O=C(c1ccc(Cl)cc1)N1CCC(N2CCCC2)CC1 -26.2%
O=C(O)C1=NOC2CN(Cc3c(F)cccc3Cl)CC12 (stereo not given) -19%
CN1CC(=O)N(C2CCCNC2)Cc2c(NCCO)ncnc21 (stereo not given) -12.6%
O=S(=O)(c1ccccc1)N1Cc2ccccc2CC2(CCN(Cc3cccnc3)C2)C1 (stereo not given) -27.4%
O=C1NCc2ccccc2CC12CCN(Cc1ccc(F)cc1O)C2 (stereo not given) -13.4%
COc1ccc(Cl)cc1CN(C)c1cc(C2CC(N)C2)ncn1 (stereo not given) 9.28% [at 64.5 µM]
Cc1cc(C(=O)NC2CCCC2)c2c(C3CCNC3)noc2n1 (stereo not given) -16.7%
O=C(NCc1ccncc1)c1cc(C2CC2)nc2onc(C3CCCN3)c12 (stereo not given) -10.6%
CC1CCN(CC2CCCNCC2)CC1 (stereo not given) 17.8% [at 64.5 µM]
Cn1cccc1CN1CCCCC12Cc1ccccc1CNC2=O (stereo not given) 139%
CNCc1ccc(F)cc1 3.07% [at 233 µM]
Cc1ccc(-c2ccccc2C=O)cc1Cl -26.7%
CNC(=O)c1cnn2c1CN(C(=O)c1ccccc1)CC2 6.53%

Potency, active:
CCC(=O)NC(c1cc(Cl)c2cccnc2c1O)C(C)C (stereo not given) 10.9 µM

Reference: PubChem BioAssay AID1671189 (National Center for Advancing Translational Sciences (NCATS), 2021)
